{"source": "paper PMC4336329", "about": "(PLoS ONE, 2015)", "note": "Screen size: about 310,000 compounds; about 2,200 (0.71%) showed an effect of 50% or more. The effect is printed as a negative number. The list shows a part of the results.", "data": [{"molecular_target": "human ether-à-go-go-related gene (hERG) potassium channel (human, UniProt Q12809)", "sequence (Q12809 whole entry, looked up)": "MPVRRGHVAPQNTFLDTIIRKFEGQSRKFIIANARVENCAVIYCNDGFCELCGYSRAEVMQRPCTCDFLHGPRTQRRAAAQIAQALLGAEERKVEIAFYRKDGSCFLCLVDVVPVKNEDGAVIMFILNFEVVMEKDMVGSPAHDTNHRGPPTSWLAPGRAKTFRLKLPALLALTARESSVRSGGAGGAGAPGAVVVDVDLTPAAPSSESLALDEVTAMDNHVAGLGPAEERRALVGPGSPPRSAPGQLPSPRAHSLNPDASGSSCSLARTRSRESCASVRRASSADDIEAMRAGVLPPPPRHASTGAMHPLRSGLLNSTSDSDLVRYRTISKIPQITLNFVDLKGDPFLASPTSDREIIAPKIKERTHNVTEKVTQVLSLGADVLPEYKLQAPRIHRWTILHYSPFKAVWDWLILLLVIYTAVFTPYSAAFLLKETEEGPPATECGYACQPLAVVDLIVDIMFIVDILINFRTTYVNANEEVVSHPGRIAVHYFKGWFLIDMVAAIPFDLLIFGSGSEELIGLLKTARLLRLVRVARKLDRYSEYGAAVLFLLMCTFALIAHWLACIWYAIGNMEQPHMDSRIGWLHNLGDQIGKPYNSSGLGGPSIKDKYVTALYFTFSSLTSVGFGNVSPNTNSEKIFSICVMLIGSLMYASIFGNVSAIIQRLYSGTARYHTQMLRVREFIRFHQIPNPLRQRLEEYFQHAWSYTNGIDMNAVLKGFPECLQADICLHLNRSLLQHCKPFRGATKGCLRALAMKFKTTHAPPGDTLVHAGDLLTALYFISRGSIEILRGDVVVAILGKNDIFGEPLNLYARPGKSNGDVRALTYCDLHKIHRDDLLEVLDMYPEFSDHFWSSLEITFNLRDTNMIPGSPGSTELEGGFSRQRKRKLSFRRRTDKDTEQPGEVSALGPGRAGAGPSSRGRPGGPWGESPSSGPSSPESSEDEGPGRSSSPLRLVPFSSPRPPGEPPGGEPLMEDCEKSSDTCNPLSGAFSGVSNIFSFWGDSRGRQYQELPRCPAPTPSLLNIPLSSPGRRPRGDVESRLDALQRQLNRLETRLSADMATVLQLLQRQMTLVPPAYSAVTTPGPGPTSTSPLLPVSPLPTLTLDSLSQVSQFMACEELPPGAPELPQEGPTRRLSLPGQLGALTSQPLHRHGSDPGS", "assay": "primary screen, population patch clamp on CHO cells stably expressing hERG", "units": {"hERG current change (%, negative = inhibition) at 1uM": "%"}, "values": [{"compound": "CCC(C)NC(=O)C1CCN(S(=O)(=O)c2ccc3nc4c(c(C(=O)O)c3c2)CCCCC4)CC1", "note": "(stereo not drawn)", "hERG current change (%, negative = inhibition) at 1uM": 6.54}, {"compound": "CC(=O)Oc1ccc(C(=O)Nc2cccc(C(=O)Nc3ccccc3C(=O)O)c2)cc1", "hERG current change (%, negative = inhibition) at 1uM": 13.7}, {"compound": "COC(=O)c1ccc(NC(=O)CCCCCn2nnc3ccccc3c2=O)cc1", "hERG current change (%, negative = inhibition) at 1uM": 5}, {"compound": "COc1ccc(CN(Cc2ccncc2)C(=O)CCC(=O)O)cc1", "hERG current change (%, negative = inhibition) at 1uM": -3.83}, {"compound": "COc1ccc(C(=O)/C=C2\\NCCc3cc(OC)c(OC)cc32)cc1OC", "hERG current change (%, negative = inhibition) at 1uM": 11.5}, {"compound": "COCCCNC(=O)CN(Cc1ccc(Cl)cc1)S(C)(=O)=O", "hERG current change (%, negative = inhibition) at 1uM": 13.8}, {"compound": "CCOc1ccc(C(CC(=O)O)NC(=O)CCCOc2ccc(Cl)cc2C)cc1", "note": "(stereo not drawn)", "hERG current change (%, negative = inhibition) at 1uM": 1.25}, {"compound": "O=C(Cc1ccc(O)cc1)N/N=C/c1cccnc1", "hERG current change (%, negative = inhibition) at 1uM": 10.2}, {"compound": "CCN(CC)S(=O)(=O)c1cc([N+](=O)[O-])ccc1N=Nc1c(O)n(C)c2ccccc12", "hERG current change (%, negative = inhibition) at 1uM": 5.63}, {"compound": "COCC(=O)N(CCc1ccccc1)Cc1cc2cc(C)ccc2nc1Cl", "hERG current change (%, negative = inhibition) at 1uM": 0.27}, {"compound": "CCc1nnc(SCCSc2nnc(CC)n2N)n1N", "hERG current change (%, negative = inhibition) at 1uM": 8.58}, {"compound": "CCN(CC(=O)Nc1cccc(C(C)=O)c1)S(=O)(=O)c1ccc(C)cc1", "hERG current change (%, negative = inhibition) at 1uM": 7.92}, {"compound": "COCCN1CC(C(=O)NCc2ccccc2-n2ccnc2C)CCC1=O", "note": "(stereo not drawn)", "hERG current change (%, negative = inhibition) at 1uM": 9.1}, {"compound": "Cc1ccccc1Nc1nnc(-c2ccc(C(=O)NCCO)cc2)c2ccccc12", "hERG current change (%, negative = inhibition) at 1uM": 1.93}, {"compound": "COC(=O)c1ccc(N2CCN(C)CC2)c(NC(=O)c2cc3ccccc3o2)c1", "hERG current change (%, negative = inhibition) at 1uM": 0.985}, {"compound": "C=CCNC(=O)c1cc(Cl)cc(Cl)c1", "hERG current change (%, negative = inhibition) at 1uM": 11.6}, {"compound": "COc1cccc(NCc2cc(=O)oc3cc(C)c(O)cc23)c1", "hERG current change (%, negative = inhibition) at 1uM": 16.1}, {"compound": "O=C(O)c1c(-c2ccccc2)c(-c2ccccc2)nc2ccccc12", "hERG current change (%, negative = inhibition) at 1uM": 11.1}, {"compound": "Cc1cc(C(=O)NNC(=O)NC(C)C)no1", "hERG current change (%, negative = inhibition) at 1uM": 14}, {"compound": "O=C(CC12CC3CC(CC(Br)(C3)C1)C2)Nc1cccc(S(=O)(=O)NC2=NCCC2)c1", "hERG current change (%, negative = inhibition) at 1uM": 3.49}, {"compound": "COc1ccc(Nc2cc(C)c3c(O)cccc3n2)cc1", "hERG current change (%, negative = inhibition) at 1uM": 3.95}, {"compound": "Clc1ccc(SCCOCCN2CCOCC2)cc1.O=C(O)C(=O)O", "hERG current change (%, negative = inhibition) at 1uM": 11.2}, {"compound": "Cc1cccc(N2C(=O)C(O)=C(C(=O)c3cccs3)C2c2cccc(Oc3ccccc3)c2)n1", "note": "(stereo not drawn)", "hERG current change (%, negative = inhibition) at 1uM": 10.3}, {"compound": "COc1ccc(Cl)cc1C(=O)N1CCN(c2ccccn2)CC1", "hERG current change (%, negative = inhibition) at 1uM": 8.48}]}]}
